Laboratory results taken from paper PMC6919601, “Identification of Plasmodium dipeptidyl aminopeptidase allosteric inhibitors by high throughput screening” (PLoS ONE, 2019).
About 230 (0.21%) of roughly 110,000 compounds showed an effect of 50% or more. This is one part of the list.

target: DPAP1 (Plasmodium falciparum, UniProt Q8IIJ9); test: primary screen, percent inhibition; read by cleavage of a fluorogenic dipeptide substrate; higher = more effect of the substance; design: species or system P. falciparum D10 trophozoite lysates; single well
Method: HTS was performed in black 384-well plates. The first and last two columns of each plate contained our negative (DMSO) and positive (10 μM JCP410) controls, and the 20 central columns the test compounds at 10 μM. Compounds were first diluted 50-fold into assay buffer (50 mM sodium acetate, 5 mM MgCl2, 10 mM β-mercaptoethanol, and 0.1% CHAPS, pH 5.5) from a 10 mM DMSO stock plates. One microliter of this 200 μM intermediate stock plate was dispensed into the assay plate. […] After 30 min, the reaction was quenched with 20 μL of 0.5 M acetic acid, and the fluorescent intensity measured at 523 nm (λex = 492 nm) using an Analyst HT multimode plate reader (Molecular Devices).
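Further: 30 min substrate incubation versus DMSO and 10 µM JCP410 controls.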

Chain of DPAP1 (Q8IIJ9 whole entry, looked up): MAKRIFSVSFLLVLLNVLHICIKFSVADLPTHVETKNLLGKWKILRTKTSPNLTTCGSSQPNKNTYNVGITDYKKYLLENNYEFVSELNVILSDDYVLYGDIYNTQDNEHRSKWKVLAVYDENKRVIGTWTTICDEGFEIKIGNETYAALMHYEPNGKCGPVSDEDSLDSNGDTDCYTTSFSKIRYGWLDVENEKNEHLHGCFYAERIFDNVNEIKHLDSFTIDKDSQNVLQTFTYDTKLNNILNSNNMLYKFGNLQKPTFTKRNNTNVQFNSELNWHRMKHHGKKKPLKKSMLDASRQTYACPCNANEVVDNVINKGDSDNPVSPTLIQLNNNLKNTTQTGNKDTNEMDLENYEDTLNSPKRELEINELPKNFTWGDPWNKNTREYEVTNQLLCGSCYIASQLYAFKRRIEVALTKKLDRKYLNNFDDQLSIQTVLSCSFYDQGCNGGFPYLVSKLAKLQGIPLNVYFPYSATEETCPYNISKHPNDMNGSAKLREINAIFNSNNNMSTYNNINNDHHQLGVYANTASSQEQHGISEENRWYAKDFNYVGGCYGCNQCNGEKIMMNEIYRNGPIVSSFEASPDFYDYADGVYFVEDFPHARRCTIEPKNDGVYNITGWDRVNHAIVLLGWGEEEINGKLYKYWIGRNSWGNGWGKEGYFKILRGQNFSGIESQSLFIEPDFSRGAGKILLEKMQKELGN

SMILES	% Inhibition @ 10 uM
COc1ccc(NC(=O)C2=C(C)NC(=O)NC2c2cccc(Cl)c2)cc1 (stereo not drawn)	0.147%
CCOC(=O)N1CCN(C(=O)COCc2cc(-c3ccc(F)cc3)on2)CC1	-2.17%
OC1CCCN(Cc2ccc3ccccc3c2)C1 (stereo not drawn)	-4.5%
Cn1c(=O)c2c(nc(NCC(=O)O)n2Cc2ccccc2)n(C)c1=O	-1.36%
Cc1ccc(C2C3=C(O)c4ccccc4C3=Nc3c2c(=O)[nH]c(=O)n3C)cc1 (stereo not drawn)	-4.76%
COc1cc(C(=O)NC(C)(C)CO)cc(OC)c1OC	0.843%
COc1cc2c(cc1OC)C(C)N(C(=O)c1nn(C)c3c1CSc1ccccc1-3)CC2 (stereo not drawn)	22.5%
COc1cc(CNC2CN3CCC2CC3)ccc1OCc1ccc(Cl)nc1 (stereo not drawn)	-6.74%
CC(NC(=O)COc1ccc([N+](=O)[O-])cc1)c1ccccc1 (stereo not drawn)	14.9%
O=C(Cn1c(C(F)(F)F)nc2ccccc21)NCCCN1CCOCC1	-5.92%
Cc1c(C(=O)NCCCN2CCCC2=O)oc2ccc3c(c12)C(O)CC(C)(C)O3 (stereo not drawn)	-6.7%
CC(c1ccccc1)n1c(O)nc2ccccc21 (stereo not drawn)	-0.403%
CCc1cccc(-n2nnc(-c3nc(-c4ccccn4)no3)c2N)c1	2.19%
Cc1[nH]c2ccccc2c1SCCNC(=O)C(C)Oc1ccccc1 (stereo not drawn)	-1.73%
COc1ccc(-c2ccc(=O)n(Cc3cc(=O)n4ccccc4n3)n2)cc1	-6.4%
CCOc1ccc(-c2nc(CSCC(=O)NCCN3CCOCC3)c(C)o2)cc1	3.93%
COc1ccc(CNC(=O)CN(C)S(=O)(=O)c2ccccc2)cc1	2.76%
Cc1ccc(C)n1-c1cc(Cl)ccc1C(=O)O	-2.26%
Cc1ccc(CNC(=O)CSc2nc3ccsc3c(=O)n2CC2CCC(C(=O)O)CC2)cc1 (stereo not drawn)	-3.46%
O=C(c1cccnc1)N1CCN(CCN2C(=O)C3C4C=CC(C4)C3C2=O)CC1 (stereo not drawn)	0.385%
CC(C)Oc1ccc(C(=O)Nc2ccc(N3CCN(C(=O)c4ccco4)CC3)cc2)cc1	3.49%
CC[C@@H](C)[C@H](NC(=O)c1cccc2ccccc12)C(=O)N[C@@H](CCc1ccccc1)C(=O)COCc1ccccc1	-12.9%
Cc1ccc(NC(=O)CN(c2ccc(C(C)C)cc2)S(C)(=O)=O)c(C)c1	0.528%
O=C(Nc1ccccc1)NC1CCCCC1NC(=O)Nc1ccccc1 (stereo not drawn)	0.145%
COc1ccccc1OCCCn1ccnc1	-8.01%

SMILES	% Inhibition @ 10 uM
CCc1nc2cccnc2n1-c1ccc(CC(=O)N2CCc3ccccc3C2)cc1	2.98%
Cc1cccc(Cn2c(C)c(CNCc3ccc(F)cc3)c(C(=O)O)c2C)c1	4.53%
COc1cc2c(cc1OC)C(C#N)N(C(=O)c1ccccc1)CC2 (stereo not drawn)	-2.85%
CC1CCCN(C(=O)c2ccc3c(c2)C(=O)N(CCC2=CCCCC2)C3=O)C1 (stereo not drawn)	8.97%
COc1ccc(-c2c(NCCC3=CCCCC3)c(=O)c2=O)cc1	0.309%
COc1ccc(OC)c(S(=O)(=O)NCc2nc3nc(C)cc(C)n3n2)c1	-0.447%
CCOC(=O)c1c(C)n(Cc2ccccc2)c2ccc(OCC(O)Cn3nc(C)nc3C)cc12 (stereo not drawn)	-4.85%
O=S(=O)(c1ccc(C2CCCCC2)cc1)N1CCOCC1	-7.35%
COc1ccc(N2CCN(Cc3ccccc3C)CC2)cc1	4.57%
Cc1cc(C(=O)NCc2ccc(F)cc2)c2c(C)nn(-c3ccc(C)c(C)c3)c2n1	-2.83%
Cc1ccc(OCC(=O)Nc2ccc(CN3CCOCC3)cc2)cc1	0.189%
N#C/C(=C\c1cccc(F)c1)c1nc(-c2ccc([N+](=O)[O-])cc2)cs1	-4.11%
CC(NC(=O)c1ccccc1)c1ccc(Br)cc1 (stereo not drawn)	-3.27%
COCCN1C(=O)/C(=C/c2ccc(F)cc2)S/C1=N\c1ccccc1	-8.08%
O=C1CC(c2ccccc2)=Nc2ncccc2N1	-3.24%
O=C(NC(Cc1c[nH]cn1)C(=O)O)c1ccccc1 (stereo not drawn)	0.493%
CCOc1ccccc1/C=C(\C#N)c1nc(-c2ccc(Cl)c(Cl)c2)cs1	-0.771%
Nc1nnc(CCS(=O)(=O)c2ccc(Cl)cc2)s1	-0.424%
Cc1ccc(S(=O)(=O)N2CCN(C(=O)c3ccco3)CC2)cc1	-0.28%
COc1ccc2nc(SCCOC(=O)c3ccccc3)nc(C)c2c1	-3.96%
COc1cc(C2c3[nH]c4ccccc4c3CC3C(=O)N(C)C(=S)N32)cc(OC)c1O (stereo not drawn)	-1.86%
Cn1nc(C(=O)N2CCN(Cc3ccc4c(c3)OCO4)CC2)c2c1-c1ccccc1OC2	-3.51%
CC(C)(C)OC(=O)N1CCCC1C(=O)NCCc1ccc(S(N)(=O)=O)cc1 (stereo not drawn)	-1.22%
CCOC(=O)N1CCc2c(sc3c2c(=O)n(CCc2ccccc2)c(=O)n3CC(N)=O)C1	3.59%
CN(C)c1ccc(C(=S)N2CCCCC2)cc1	-1.05%

SMILES	% Inhibition @ 10 uM
OC12Oc3ccccc3C=C1N1CCC2CC1 (stereo not drawn)	3.04%
Cc1cc(C)c2c(-n3cccc3)nn(CC(=O)N3CCCCCC3)c2n1	-3.52%
Nc1nc(C(Cl)(Cl)Cl)nc(-c2ccccc2)c1C(=O)c1ccccc1	3.25%
O=C1CCCN1CP(=O)(O)CN1CCOCC1	3.48%
CCC(Sc1ncccc1C(=O)O)C(=O)N1CCCC1 (stereo not drawn)	-0.519%
O=C(NCCCO)C(=O)NCCc1ccccc1	-1.6%
CCOc1ccccc1NC(=O)CN(c1ccc(OC)cc1)S(C)(=O)=O	-5.67%
Cc1ccc(-c2cc(C(=O)Nc3cc(C)on3)c3ccccc3n2)cc1	-6.36%
COc1cc(OC)c(C2C(C#N)=C(N)Oc3cc(C)oc(=O)c32)cc1Br (stereo not drawn)	4.66%
COc1cc(C(=O)NCc2cc(C)nc3ccccc23)cc(OC)c1OC	0.9%
COc1cccc(/C=c2\sc3nc(-c4cccc(Cl)c4)nn3c2=O)c1	2.24%
Cc1nnc(N2CCC(C(=O)N3CCC(C(N)=O)CC3)CC2)c2nn(-c3ccc(Cl)cc3)c(C)c12	7.24%
COc1ccc(-c2cc(OC(=O)c3ccccc3F)c3c(C)oc(C)c3c(=O)c2)cc1OC	3.81%
COC(=O)c1ccc(OCC(=O)Nc2ccsc2C(=O)OC)cc1	35%
COc1ccc(OC)c(NC(=O)CN(c2ccc(Cl)cc2)S(C)(=O)=O)c1	-1.43%
Cc1ccc2onc(CC(=O)NC3CCCCC3)c2c1	2.89%
CN1CCc2nc3sc(C(=O)C(C)(C)C)c(N)c3c(-c3cccs3)c2C1	3.05%
CCc1ccc(S(=O)(=O)c2nnn3c2nc(N(C)Cc2ccccc2)c2sccc23)cc1	-3.44%
CC1CCCC(NC(=O)c2cc3sc(Cl)cc3n2C)C1C (stereo not drawn)	-6.91%
Cc1ccccc1-c1nnc(CN2CCC(C)CC2)o1	-0.0709%
O=C(NCc1ccccc1)c1cc([N+](=O)[O-])ccc1Cl	1.91%
COc1ccc(C(=O)Nc2sc(C)c(C)c2C(N)=O)c(OC)c1	-3.24%
O=C1CCSc2c1cccc2C(=O)NCCCN1CCOCC1	-0.205%
Cc1ccccc1C1CC(=O)Nc2c1c(C)nn2-c1nc2ccccc2s1 (stereo not drawn)	5.39%
CCc1cccc(CC)c1NC(=O)C(C)NS(=O)(=O)c1ccc(Cl)cc1 (stereo not drawn)	1.17%

SMILES	% Inhibition @ 10 uM
O=C(Nc1cnc2ccccc2c1O)N1CCC(Cc2ccccc2)CC1	5.43%
CC1=C(C(=O)N2CCCCC2)C(c2cc(Br)ccc2F)C2=C(O)CC(C)(C)CC2=N1 (stereo not drawn)	-5.05%
Cc1cc(S(=O)(=O)c2cc3cc(F)cc(F)c3oc2=O)ccc1F	2.12%
O=C(c1ccc(Cl)s1)N1CCc2ccccc21	3.15%
CC(C)(C)c1ccccc1OCC(=O)NCCc1nc2ccccc2[nH]1	5.09%
O=C(CS(=O)(=O)c1ccc(Cl)cc1)c1cc2cc(Cl)ccc2oc1=O	-6.08%
O=C(c1cc(-c2ccccc2F)no1)N1CCOCC1	1.92%
COCc1cc(C)nc2sc(C(=O)c3ccccc3)c(NC(=O)c3ccccc3)c12	-6.58%
CC(NC(=O)C(c1ccccc1)c1ccccc1)C1COc2ccccc2O1 (stereo not drawn)	-6.65%
c1ccc(CN2CCC(N3CCCCC3)CC2)cc1	1.88%
C=C(C)CC(Nc1ccccc1F)c1ccco1 (stereo not drawn)	1.37%
CC1CCC(NCCN2CCCCC2)CC1 (stereo not drawn)	-5.44%
COCCNC(=O)Cn1cnc2c(nc3n2CCCCC3)c1=O	-0.238%
CC(=O)c1nn(-c2ccccc2)cc1C(=O)c1cccc(Br)c1	4.81%
CC1=CC2=NC(=O)/C(=C/c3coc4ccccc4c3=O)C(=N)N2O1	1.15%
COc1ccc(CNC(=O)c2ccnn2C)cc1	-1.88%
COc1ccc(OC)c(C2CC(=O)N=C(NC(=O)c3cccc(F)c3)N2)c1 (stereo not drawn)	-0.759%
Cc1ccc(/C=C2\C(=N)N3N=C(N4CCOCC4)SC3=NC2=O)o1	0.0579%
Cc1ccc(-n2c(Cc3cccn3C)nnc2SCC(=O)NCc2ccccc2)cc1	-2.19%
CCN(CC)C(=O)CN(c1ccc(Cl)c(Cl)c1)S(=O)(=O)c1ccccc1	-2.8%
COc1cccc(CN2CCN(c3cccc(C(F)(F)F)c3)CC2)c1	-3.65%
CCn1ncc(C2C(C#N)=C(N)Oc3[nH]nc(C)c32)c1C (stereo not drawn)	-3.19%
CC1(c2ccc3noc(-c4ccc(Cl)cc4)c3c2)OCCO1	3.81%
O=S(=O)(c1ccc(Br)cc1)c1cccc(S(=O)(=O)N2CCCC2)c1	3.53%
